# Source: PubChem BioAssay AID1345083 (National Center for Advancing Translational Sciences (NCATS), 2018)
# “And” between values parts separate entries of the source, which are not always exact repeats. Equal entries are not always repeated. The campaign covered roughly 94,000 compounds. About 6,200 (6.6%) were called active. Inconclusive results, whose numbers are uncertain, are shown with a selection of clear calls. The call rests on the fitted dose curve; in most records, active means well fitted inhibition curve with a large enough effect; inconclusive means small, poorly fitted or top-dose-only effect; inactive means flat fitted curve, though single readings scatter. A potency beside an inconclusive call is a rough fit, not a confirmed value.
# Experiment: Cytotoxic Profiling in HEK 293 Cell Line of Diverse Libraries Using Quantitative High-Throughput Screening; further: nearly all actives have a fitted effect of over 60% in size
# Details: HEK 293 viability, ATP luminescence (CellTiter-Glo), 48-72 h; series mostly up to 115 µM
# Summary of the method: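 Luminescence from cellular ATP, measured with CellTiter-Glo, indicates HEK 293 viability. Cells plated at 250 cells/well are treated with compound for 48 or 72 hr at 37 degree Celsius before reagent addition.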
# Potency means the concentration at half of the fitted maximal effect; tags describe the fitted curve by direction and shape.
row,Structure (SMILES),Potency
1,O[C@]12CCNC[C@H]1CN(Cc1cccc(N3CCOCC3)c1)CC2,inactive
2,CCOC(=O)N1CCC(=O)N(C)C[C@H]2COc3ccc(C)cc3[C@H]21,inactive
3,O=C1c2c(nc(CNCC3CC3)n2Cc2ccccc2)NCCN1Cc1ccccc1,"inconclusive: 100 µM [inhibitor, partial curve]"
4,Cc1cccc(C(=O)N2CCCCCCNC(=O)[C@@H]3C[C@@H](c4nc(C(C)C)no4)C[C@@H]32)c1,inactive
5,C[C@H](C(=O)N1CCCC1)C1CC[C@@]2(C)Cc3sc(CS(=O)(=O)c4ccc(Cl)cc4)nc3[C@@H](C)[C@@H]2[C@H]1O (stereo not given in full),"inconclusive: 56.2 µM [inhibitor, partial curve, poor fit]"
6,C[C@@H](NC(=O)C[C@@H]1c2nc(-c3cccnc3)sc2C[C@@H]2[C@](C)(CO)[C@H](O)CC[C@]21C)c1ccccc1,"inconclusive: 39.8 µM [inhibitor, partial curve]"
7,COc1cccc(CNC(=O)c2ccc3c(c2)CC(=O)N3Cc2cccc(F)c2)c1OC,"inconclusive: 89.1 µM [inhibitor, single point]"
8,CC(=O)Nc1ccc(CN2C(=O)OC3(CCN(Cc4ccc(C(C)C)cc4)CC3)C2(C)c2ccccc2)cc1 (stereo not given),"inconclusive: 44.7 µM [inhibitor, partial curve, poor fit]"
9,COc1cccc(C(=O)NC2CCN(Cc3cccc(-c4ccc(F)cc4F)c3)CC2)c1,"inconclusive: 20 µM [inhibitor, full curve, poor fit] and active: 31.6 µM"
10,COc1cccc([S+](=O)([O-])N2CCc3nc(C)nc(-c4ccc(Cl)cc4)c3C2)c1,"inconclusive: 89.1 µM [inhibitor, single point]"
11,CN1CCCCCC(O)c2cc(C(=O)N3CCc4ccccc43)ccc21 (stereo not given),"inconclusive: 56.2 µM [inhibitor, partial curve, poor fit]"
12,Cc1nc2scc(CC(=O)NCC(C)C)n2c(=O)c1-c1cc(C)n(-c2cccc(Cl)c2)n1,"inconclusive: 89.1 µM [inhibitor, single point]"
13,Fc1ccc(-c2cnc([C@@H]3COCCN3Cc3cccnc3)[nH]2)c(F)c1,"inconclusive: 50.1 µM [inhibitor, partial curve, poor fit]"
14,C=CCn1cc2c3c(cccc31)[C@H](CC(C)C)N[C@H](C(=O)O)C2,inactive
15,Cc1nnc2ccc(N3CCN(C(=O)c4cccc(Cl)c4)CC3)nn12,"inconclusive: 100 µM [inhibitor, partial curve]"
16,O=C(c1scc2c1OCCO2)N1CCC2(CC1)c1ccccc1CC2O (stereo not given),inactive
17,O=S(=O)(c1ccccc1)N1CCCC(Cn2c(C3CC3)nc3cccnc32)C1 (stereo not given),"inconclusive: 56.2 µM [inhibitor, partial curve, poor fit]"
18,CCOC(=O)C1CCCN(C(=O)CC(c2cccc([N+](=O)[O-])c2)c2c[nH]c3c(CC)cccc23)C1 (stereo not given),"inconclusive: 39.8 µM [inhibitor, full curve, poor fit]"
19,COc1ccc(-c2cc(C[C@@H]3CC[C@H](O)[C@@H](CNCc4cccc(OC)c4)O3)no2)cc1,"inconclusive: 50.1 µM [inhibitor, partial curve, poor fit]"
20,COc1ccc(OC)c(NC(=O)c2ccc3c(c2)N(S(=O)(=O)c2ccccc2)CC3)c1,"inconclusive: 56.2 µM [inhibitor, partial curve, poor fit]"

row,Structure (SMILES),Potency
1,O=C(CCC[C@H]1NC[C@@H]2C[C@H]1CN(Cc1ccccc1)C2)NCc1ccccn1,"inconclusive: 70.8 µM [inhibitor, single point]"
2,COC[C@@H]1[C@H](C(=O)N2CCN(c3cccc(C)c3)CC2)CCC(=O)N1C,inactive
3,CCC1Oc2ccc(NC(=O)CC(C)(C)C)cc2CN(Cc2ccc(F)cc2)C1=O (stereo not given),"inconclusive: 89.1 µM [inhibitor, partial curve, poor fit]"
4,Cc1nc(C(=O)Nc2nn(Cc3ccccc3)c3cc(OC(C)C)ccc23)c(C)o1,"inconclusive: 56.2 µM [inhibitor, partial curve, poor fit]"
5,COc1cccc(CN2Cc3nc(-c4cccc(NC(C)=O)c4)ccc3OCC2=O)c1,active: 79.4 µM
6,C=CCOc1cccc(-c2nc(C(=O)N(C)Cc3ccco3)cs2)c1,"inconclusive: 79.4 µM [inhibitor, partial curve, poor fit]"
7,CNc1ncccc1C(=O)N1CCCC2(C1)C(=O)N(C)c1ccccc12 (stereo not given),inactive
8,Cc1[nH]nc2c1C(c1cccc(F)c1)C(C#N)=C(N)O2 (stereo not given),"inconclusive: 100 µM [inhibitor, single point]"
9,O=C1NCc2ccccc2CC12CCN(Cc1ccccc1F)C2 (stereo not given),"inconclusive: 112 µM [inhibitor, partial curve, poor fit]"
10,COc1ccc(-c2ccccc2NC(=O)C2CCCN(Cc3cccnc3)C2)cc1 (stereo not given),inactive
11,O=C(Cc1cccc(F)c1)Nc1ccc2ncnc(N3CCCCC3)c2c1,"inconclusive: 50.1 µM [inhibitor, partial curve, poor fit]"
12,Cc1ccc(CCNC(=O)C2CCN(C(=O)c3cc4c(=O)[nH]c(C)cn4n3)CC2)cc1,inactive
13,O=C(NCc1c[nH]c2ncccc12)c1ccc(Cl)cc1,"inconclusive: 89.1 µM [inhibitor, partial curve]"
14,CC(C)NC(=O)C1(C)CN(Cc2ccccc2)Cc2ccc(N3CCOCC3)nc21 (stereo not given),"inconclusive: 100 µM [inhibitor, partial curve, poor fit]"
15,CN(C)c1cccc(C(=O)NC2CCCN(c3cc(-c4ccc(F)cc4)[nH]n3)C2)c1 (stereo not given),"inconclusive: 50.1 µM [inhibitor, partial curve, poor fit]"
16,Cc1c(Cl)cccc1NC(=O)Cn1ccn2nc(-c3ccccc3)c(CO)c2c1=O,"inconclusive: 89.1 µM [inhibitor, single point]"
17,COc1cccc(NC(=O)c2c(-c3cnn(C)c3NCc3ccc(C#N)cc3)noc2C)c1,inactive
18,COc1cccc(NC(=O)c2ccc(-c3nnc4ccc(NC(=O)C5CCC5)cn34)cc2)c1,inactive
19,CC1(C)C(=O)N(CCOc2ccccc2)[C@H]2CN(Cc3c[nH]c4ccccc34)C[C@H]2[S+]1(=O)[O-],"inconclusive: 89.1 µM [inhibitor, single point]"
20,Cc1noc(-c2cccs2)c1C(=O)NC1CCc2ccccc21 (stereo not given),"inconclusive: 56.2 µM [inhibitor, partial curve, poor fit]"

row,Structure (SMILES),Potency
1,CCC(COC)NC(=O)c1c(C)noc1-c1ccc(C(C)(C)C)cc1 (stereo not given),"inconclusive: 56.2 µM [inhibitor, partial curve, poor fit]"
2,O=C(NCc1ccccc1)c1csc(N2CCN(c3ccc(Cl)cc3)CC2)n1,"inconclusive: 89.1 µM [inhibitor, single point]"
3,O=C(Cc1c[nH]c2ncc(-c3ccccc3)cc12)NC1CC1,"inconclusive: 89.1 µM [inhibitor, full curve, poor fit]"
4,c1ccc(-c2nc3ncccc3[nH]2)nc1,"inconclusive: 158 µM [inhibitor, single point] and inconclusive: 141 µM [inhibitor, partial curve, poor fit]"
5,CSCCC(=O)N1CCCC(CCc2ccccc2F)C1 (stereo not given),"inconclusive: 79.4 µM [inhibitor, partial curve, poor fit]"
6,c1cncc(CN2CCC[C@H]2c2nc(-c3ccc(-n4ccnc4)nc3)no2)c1,"inconclusive: 126 µM [inhibitor, single point]"
7,Cc1cccc(CC(=O)N2CCC3(CC2)CC(N(C2CC2)S(C)(=O)=O)CCO3)c1 (stereo not given),"inconclusive: 89.1 µM [inhibitor, partial curve, poor fit]"
8,O=C1CCN(C(=O)C2CCN(Cc3c[nH]c4ccccc34)CC2)CCCCCCN1,inactive
9,O=C1CN(Cc2ccc(-c3ccccc3)cc2)CCN1c1ccc(Cl)nn1,"inconclusive: 89.1 µM [inhibitor, single point]"
10,CCNC(=O)C1C(c2cccc(NC(=O)c3cccs3)c2)OC(=O)N1Cc1ccc(C)cc1 (stereo not given),"inconclusive: 50.1 µM [inhibitor, partial curve, poor fit]"
11,CC(=O)NCC(=O)N1Cc2ccccc2CC2(CCN(CC3CCCC3)C2)C1 (stereo not given),inactive
12,COCCOCC1(CNCC2CC2)C[C@@H](O)[C@@H](O)C1 (stereo not given in full),"inconclusive: 158 µM [inhibitor, single point]"
13,CC(=O)N1CCN(C(=O)c2nc3cccnc3n(CCc3ccccc3)c2=O)CC1,inactive
14,CCS(=O)(=O)N1CCC(F)(c2nc(-c3ccccc3)no2)CC1,"inconclusive: 70.8 µM [inhibitor, partial curve, poor fit]"
15,OCCC1CN(Cc2cccn2-c2ccccn2)CCN1Cc1cccs1 (stereo not given),inactive
16,Cc1noc(-c2cccc(OC3CN(C(=O)Cc4ccsc4)C3)c2)n1,"inconclusive: 79.4 µM [inhibitor, single point]"
17,CC(C)CNC(=O)c1cn2cc(-c3cccc(C(F)(F)F)c3)sc2n1,"inconclusive: 50.1 µM [inhibitor, partial curve]"
18,COc1cccc(-c2cn3c(n2)N(C(=O)c2ccoc2)CCC3)c1,"inconclusive: 39.8 µM [inhibitor, full curve]"
19,CC1=C[C@@H](CNCCN(C)C)[C@H](C(C)C)C[C@H]1Cc1nnc(C(C)(C)C)o1,"inconclusive: 56.2 µM [inhibitor, partial curve, poor fit]"
20,CN1c2cc(C(=O)NCc3ccc(F)cc3)ccc2C(=O)N2CCCCCC21 (stereo not given),"inconclusive: 50.1 µM [inhibitor, partial curve, poor fit]"
